Source: PubChem BioAssay AID463173 (ICCB-Longwood Screening Facility, Harvard Medical School, 2010)
Hit rate of the full screen: of about 52,000 compounds, about 1,700 (3.3%) were called active. Rule as the data show it: active = survival mostly below about 52% (no sharp cut-off); inactive = mostly above about 56%. Some of the results follow.

These compounds were tested on Wild type (assay: S. aureus survival, RN4220 and DeltatarO strains – OD600, teichoic acid synthesis inhibitors, primary screen (AID 463173)). Conditions: S. aureus RN4220 wild type/DeltatarO growth, OD600, 18 h, hits give low values, screened at 18.75 µg/mL (by protocol).

| SMILES | survival |
| --- | --- |
| O=C(C1CCCN(S(=O)(=O)c2cccc3nonc23)C1)N1CCN(c2cccc(Cl)c2)CC1 (configuration not stated) | inactive: 55% |
| CCc1ccc(CSc2nc(-c3ccccc3OC)nc3c2Cc2c(CO)cnc(C)c2O3)cc1 | inactive: 121% |
| CCc1ccc(NC(=O)c2cc(-c3cccs3)on2)cc1 | inactive: 140% |
| O=C(CN1CCSc2ccccc21)N1CCN(c2ccccc2)CC1 | inactive: 126% |
| CCn1cc(C2N3CC4(CC)CN2CC(CC)(C3)C4=O)c2ccccc21 (configuration not stated) | inactive: 81% |
| CCOC(=O)c1c(NC(=O)/C=C/c2ccc(OC)c(OC)c2)sc(C(C)=O)c1C | inactive: 145% |
| COC(=O)c1ccc2c(=O)n(CCCCCC(=O)NCc3ccccc3)c(=O)[nH]c2c1 | inactive: 83% |
| Cc1cccc(-n2c3c(cc(-c4nc(-c5ccc(Cl)cc5)cs4)c2=O)C(=O)CC(C)(C)C3)c1 | inactive: 69% |
| COc1ccccc1CNC(=O)C1CCCN(c2nn3cc(-c4ccc(F)cc4)nc3s2)C1 (configuration not stated) | inactive: 77% |
| CCOC(=O)c1cnc2cc(C(F)(F)F)ccc2c1N1CCN(c2ccc(F)cc2)CC1 | inactive: 58% |
| CCOc1ccc2nc(Nc3nc4c(c(=O)[nH]3)CCCC4)nc(C)c2c1 | inactive: 114% |
| CCOc1ccc(CCNC(=O)CS(=O)Cc2nc(-c3ccc(C)cc3)oc2C)cc1OCC (configuration not stated) | inactive: 80% |
| Cc1ccc(Cn2ccn(CC(=O)Nc3ccccc3C(F)(F)F)c(=O)c2=O)cc1 | inactive: 114% |
| CC(=O)c1ccc(NC(=O)c2ccc3c(c2)N(Cc2cccc(Cl)c2)C(=O)c2ccccc2S3(=O)=O)cc1 | inactive: 96% |
| CCOC(=O)c1c(C)[nH]c(C)c1S(=O)(=O)N1CCC(C(=O)Nc2ccc(F)cc2F)CC1 | inactive: 82% |
| CCOc1ccccc1NC(=O)Cn1c(=O)n(CCCC(=O)NCCOC)c(=O)c2cc(OC)c(OC)cc21 | inactive: 67% |
| COC(=O)c1ccccc1NC(=O)CSc1nc(-c2ccccc2)cc(C(F)(F)F)n1 | active: 19% |
| Cc1cc(Cl)ccc1NC(=O)CN1C(=O)CSc2ccc(S(=O)(=O)N(C)C)cc21 | inactive: 68% |
| CCn1c(NN)nc2sc3c(c2c1=O)CC(C)(C)OC3 | inactive: 107% |
| CCOCCc1nn2c(=O)cc(COC(=O)COc3ccccc3Cl)nc2s1 | inactive: 78% |
| COc1ccc(CNC(=O)Cn2ccc3cc(S(=O)(=O)N4CCCCC4)ccc32)c(OC)c1 | inactive: 64% |
| Cc1ccc(NC(=O)CN2CCCN(Cc3ccccc3Cl)S2(=O)=O)c(C)c1 | active: -1% |

| SMILES | survival |
| --- | --- |
| O=c1c2ccccc2nc2n1CCS2 | inactive: 103% |
| COc1ccccc1CNC(=O)CCc1c(C)nc2cc(-c3ccccc3OC)nn2c1C | inactive: 70% |
| O=C(CSc1nnc(COc2cccc3ccccc23)n1CC1CCCO1)NC1CC1 (configuration not stated) | inactive: 110% |
| CCOc1ccc(C2c3[nH]c4ccccc4c3CCN2C(=O)Cc2cccc(OCC)c2OCC)cc1 (configuration not stated) | inactive: 140% |
| Cc1ccccc1Cn1nnc2c(=O)[nH]c(C3CCN(C(=O)c4ccccc4)CC3)nc21 | inactive: 25% |
| CCOC(=O)c1cnc2ccc(C(=O)OC)cc2c1Nc1ccccc1CC | active: -1% |
| COc1ccc(-c2nc3sc(CCNC(=O)c4cccc(C(F)(F)F)c4)c(C)n3n2)cc1 | inactive: 70% |
| Cc1cc(C)cc(-n2ccnc2SCC(=O)Nc2nc3ccccc3s2)c1 | inactive: 70% |
| CCC(C(=O)NCc1ccccc1OC)n1nc(C)n2c(cc3sccc32)c1=O (configuration not stated) | inactive: 76% |
| CCOC(=O)c1c(S(=O)(=O)NCC(=O)Nc2ccc(C)c(Cl)c2)c(C)n(C)c1C | inactive: 55% |
| COC(=O)c1cc(-c2cocc2C=C(C#N)C#N)ccc1Cl | inactive: 110% |
| Cc1[nH]c2ccc(S(N)(=O)=O)cc2c1C | inactive: 107% |
| CSc1ncc(C(=O)NCc2ccccc2)c(-c2ccccc2)n1 | active: 10% |
| CC(C)Oc1ccc(CNC(=O)c2ccc(NC(=O)N3CCSc4ncccc43)cc2)cc1 | active: 1% |
| CC(C)(C)n1cnc2cc(NCc3ccccc3Cl)ccc21 | active: 8% |
| COc1ccc(NC(=O)C2CCCN2S(=O)(=O)c2cccc3cccnc23)cc1OC (configuration not stated) | inactive: 78% |
| CN(C)c1ccc(CNC(=O)C2CCN(S(=O)(=O)c3ccc4c(ccn4C)c3)CC2)cc1 | inactive: 76% |
| Cc1ccc(C)c(Nc2nn3c(=O)c4ccc(C(=O)NCCc5ccccc5)cc4nc3s2)c1 | inactive: 84% |
| CCOC(=O)c1ccc(NC(=O)C(CC)Sc2nc3ncccc3o2)cc1 (configuration not stated) | inactive: 55% |
| Cc1ccc(N2CCN(C(=O)c3c4c(nc5ccccc35)C(=O)N(C3CCCCC3)C4)CC2)c(C)c1 | inactive: 73% |
| Cc1n[nH]c(C)c1S(=O)(=O)N1CCCC(C(=O)Nc2ccc(Cl)cc2)C1 (configuration not stated) | inactive: 119% |
| CCN(C(=O)Cn1cc(S(=O)(=O)Cc2ccccc2Cl)c2ccccc21)c1ccccc1 | inactive: 68% |

| SMILES | survival |
| --- | --- |
| Cc1ccc(C)c(N2CCN(C(=O)Cn3c(-c4cccs4)cc4ccccc43)CC2)c1 | inactive: 74% |
| COCCCn1c(SCC(=O)NCc2ccccc2)nc2c(sc3ccccc32)c1=O | inactive: 72% |
| COc1ccc(C(=O)Nc2nc3c(s2)CCc2cc(OC)ccc2-3)cc1 | inactive: 41% |
| CCCCNc1nc(Oc2ccc(OCC(N)=O)nn2)nc(N2CCOCC2)n1 | inactive: 118% |
| Cc1ccc(-n2ncc3c(N4CCN(CCO)CC4)ncnc32)cc1Cl | inactive: 73% |
| Cc1ccc(-c2cc(C(=O)NCc3cnn(C)c3)c3cc(Br)ccc3n2)cc1 | inactive: 85% |
| Cc1ccc(S(=O)(=O)c2c(F)c(F)c(S(=O)(=O)c3ccc(C)cc3)c(F)c2F)cc1 | inactive: 110% |
| Cc1ccc(-n2c(SCC(=O)Nc3ccc4c(c3)OCO4)nc3c([nH]c4ccccc43)c2=O)cc1 | inactive: 121% |
| CCOc1cc(C2c3c(oc4ccc(F)cc4c3=O)C(=O)N2Cc2ccco2)ccc1O (configuration not stated) | inactive: 99% |
| Cc1cc(Br)ccc1NC(=O)c1cn(C2CCCC2)c(=O)c2c1c1ccccc1n2C | inactive: 79% |
| Cc1ccc(Cc2nc3ccccc3nc2SCC(=O)NCc2ccc(F)cc2)cc1 | inactive: 71% |
| Cc1cccc(C(=O)N2CCc3cc(CNC(=O)Cc4ccc(F)cc4)ccc32)c1 | inactive: 64% |
| CCc1ccccc1N(C)C(=O)c1cnc(N2CCOCC2)c2ccccc12 | inactive: 65% |
| CCC(=O)C1=C(c2cccc([N+](=O)[O-])c2)N(C(=O)CC)n2c(nnc2-c2ccccc2)S1 | active: 0% |
| CCNc1nc(Cl)nc(N(C)C#N)n1 | inactive: 87% |
| COc1ccc(CCNc2ncnc3c2c(-c2ccccc2)cn3-c2ccc(F)cc2)cc1OC | inactive: 58% |
| COc1ccc(CCNC(=O)Cn2c(=O)n(-c3cc(OC)c(OC)c(OC)c3)c(=O)c3ccccc32)cc1OC | inactive: 67% |
| COc1cccc(CNc2nc3c(-c4ccccc4)nnn3c3ccccc23)c1 | inactive: 141% |
| Cc1ccc2oc(=O)c3cnn(CC(=O)N4CCN(c5cc(Cl)ccc5C)CC4)c3c2c1 | inactive: 83% |
| CCOc1ccc(NC(=O)c2cc(S(=O)(=O)N3CCCCC3)c[nH]2)cc1 | inactive: 111% |
| CN(C)c1ccc(C(CC(=O)O)NC(=O)c2ccc(Cl)cc2)cc1 (configuration not stated) | inactive: 93% |
| CCOc1ccc(CCNCc2c(C(=O)O)n(Cc3ccc(C)cc3)c3cc(OC)ccc23)cc1 | inactive: 48% |

| SMILES | survival |
| --- | --- |
| COc1cccc(NS(=O)(=O)c2ccc3[nH]cc(C(=O)NCCc4ccccc4)c(=O)c3c2)c1 | inactive: 85% |
| O=c1[nH]c(-c2ccc(S(=O)(=O)N3CCCC3)cc2)nc2sc3c(c12)CCCC3 | inactive: 115% |
| CN(Cc1ccccc1)C(=O)CSc1nc2ccsc2c(=O)n1-c1ccc(F)cc1 | inactive: 120% |
| COc1cccc(N2C(=O)N(Cc3ccc(C#N)cc3)c3ccccc3S2(=O)=O)c1 | inactive: 67% |
| CCn1cc(C(=O)NCCCN(CC(C)C)CC(C)C)c(=O)c2cc(S(=O)(=O)N(C)C3CCCCC3)ccc21 | inactive: 86% |
| COc1ccc(NC(=O)CCc2nnc3n(C)c(=O)c4sccc4n23)cc1Cl | inactive: 70% |
| CCc1ccccc1NC(=O)Cn1c(=O)n(CC2CCC(C(=O)NCCc3ccccc3)CC2)c(=O)c2ccccc21 (configuration not stated) | inactive: 85% |
| O=S(=O)(c1ccccc1F)N1CCC(Oc2ccc(-n3cnnn3)cc2)CC1 | inactive: 79% |
| O=C(NCc1ccccc1Cl)c1cnc2sc(N3CCOCC3)nn2c1=O | inactive: 70% |
| CCC(=O)N1CCc2cc(Br)cc(S(=O)(=O)CCC(=O)Nc3ccc(C)c(C)c3)c21 | inactive: 47% |
| COc1ccc(-c2noc(-c3ccc(NCc4cccnc4)c([N+](=O)[O-])c3)n2)cc1 | inactive: 89% |
| COc1ccc(C2=NS(=O)(=O)N(C)C(C(=O)NCc3ccccc3)=C2)cc1OC | inactive: 102% |
| Cc1ccc(S(=O)(=O)c2nc(-c3ccccc3Cl)oc2N2CCCCCC2)cc1 | inactive: 20% |
| COc1ccc(-c2cc(C(=O)Nc3ccn(Cc4ccc(C)cc4)n3)no2)cc1OC | inactive: 83% |
| CCc1ccc(NC(=O)C(=O)NCC(c2ccc3c(c2)OCO3)N2CCOCC2)cc1 (configuration not stated) | inactive: 77% |
| Cc1ccc(Cl)c(NC(=O)Nc2csc3c2CCCC3)c1 | inactive: 84% |
| CCS(=O)(=O)N1CCC(n2c(C)nc3cccnc32)CC1 | inactive: 63% |
| COc1cc2oc(=O)c(CC(=O)N3CCCCC3)c(C)c2cc1OC | inactive: 87% |
| CN1C(=O)c2ccccc2Sc2ccc(NC(=O)COc3ccccc3)cc21 | inactive: 83% |
| Cc1ccccc1OCc1nnc(SCC(=O)N(C)C)n1-c1ccccc1 | inactive: 109% |
| CCOC(=O)c1nc(N2CCN(c3ccc(F)cc3)CC2)c2c(C)noc2n1 | active: 14% |
